Experimental data: paper PMC4336329 (PLoS ONE, 2015)
Out of some 310,000 compounds screened, about 14,000 (4.5%) showed an effect of 50% or more. The effect is printed as a negative number. The list shows a part of the results.

molecular target: human ether-à-go-go-related gene (hERG) potassium channel (human, UniProt Q12809); test: primary screen, population patch clamp on CHO cells stably expressing hERG
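Further: peak tail current of the secondary pulse compared with the same well before compound.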

human ether-à-go-go-related gene (hERG) potassium channel, sequence (Q12809 whole entry, looked up): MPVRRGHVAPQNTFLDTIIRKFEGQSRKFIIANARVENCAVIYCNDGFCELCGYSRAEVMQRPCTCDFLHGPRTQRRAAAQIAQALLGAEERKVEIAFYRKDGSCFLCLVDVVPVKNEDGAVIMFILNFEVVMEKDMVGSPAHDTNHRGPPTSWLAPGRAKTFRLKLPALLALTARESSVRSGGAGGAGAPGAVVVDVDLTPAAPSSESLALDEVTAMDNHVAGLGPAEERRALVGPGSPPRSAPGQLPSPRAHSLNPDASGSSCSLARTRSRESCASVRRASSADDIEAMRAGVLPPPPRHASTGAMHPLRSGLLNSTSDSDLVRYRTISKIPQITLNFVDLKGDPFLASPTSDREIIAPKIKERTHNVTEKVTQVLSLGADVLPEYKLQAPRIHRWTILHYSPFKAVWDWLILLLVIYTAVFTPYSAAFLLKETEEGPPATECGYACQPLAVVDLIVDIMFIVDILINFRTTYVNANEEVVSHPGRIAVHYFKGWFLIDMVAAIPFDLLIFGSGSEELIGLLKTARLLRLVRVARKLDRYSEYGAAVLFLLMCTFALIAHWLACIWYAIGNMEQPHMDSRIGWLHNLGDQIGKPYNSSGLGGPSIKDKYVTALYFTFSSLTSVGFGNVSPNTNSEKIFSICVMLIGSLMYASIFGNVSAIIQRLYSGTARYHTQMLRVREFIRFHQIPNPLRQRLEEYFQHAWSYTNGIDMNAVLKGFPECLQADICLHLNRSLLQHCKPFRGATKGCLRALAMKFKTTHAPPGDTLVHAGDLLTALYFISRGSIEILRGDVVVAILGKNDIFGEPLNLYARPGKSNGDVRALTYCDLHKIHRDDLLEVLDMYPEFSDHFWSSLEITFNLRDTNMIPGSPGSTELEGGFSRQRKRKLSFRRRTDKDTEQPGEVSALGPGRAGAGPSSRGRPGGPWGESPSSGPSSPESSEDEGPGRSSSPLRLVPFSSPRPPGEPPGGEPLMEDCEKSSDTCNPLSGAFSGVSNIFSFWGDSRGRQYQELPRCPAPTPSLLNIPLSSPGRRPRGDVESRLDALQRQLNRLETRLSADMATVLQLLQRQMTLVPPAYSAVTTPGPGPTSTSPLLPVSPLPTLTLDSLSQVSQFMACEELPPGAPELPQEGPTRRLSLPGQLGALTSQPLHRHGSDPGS

SMILES | hERG current change (%, negative = inhibition) at 10uM [%]
O=C(O)Cn1cc(/C=C2\C(=O)NC(=O)N(Cc3ccco3)C2=O)c2ccccc21 | 9.37
COc1ccccc1C(=O)NNC(=O)C(=O)NC1CCCCC1 | 22
CC(=O)Nc1ccc(C(=O)NCC(=O)OCc2c(F)cccc2Cl)cc1 | 15.7
Cc1nn(Cc2ccccc2Cl)c2sc(C(=O)NCCCn3ccnc3)cc12 | -82.6
COc1ccc(NC(=O)Nc2cc(C)cc(C)c2)cn1 | 8.94
CO/N=C(\Cn1ncc(NC2CCCCC2)c(Br)c1=O)c1ccc(Cl)cc1 | -6.29
Cc1n[nH]c(=O)c2c(NC(=O)CSc3nncs3)oc(C)c12 | 15.7
CC(C)(C#CC(O)(c1ccccc1)c1ccccc1)N1CCCCC1 | -27.2
CCc1nc(N2CCNCC2)c(C#N)c2c1CSC(C)(C)C2 | 2.02
O=C(Nc1c(F)cc(F)cc1Br)c1cc(-c2ccc(O)cc2)on1 | -19.3
COc1ccc(C(=O)NCC(c2ccc(F)cc2)N2CCOCC2)cc1S(=O)(=O)N1CCCC1 (centres unmarked) | 1.8
CCc1nc(SCC(=O)NCc2ccc(F)cc2)c2c(=O)n(C)c(=O)n(C)c2n1 | 6.45
CC(=O)OCC(=O)Nc1ccccc1C | 5.52
Cc1ccc(OCC(=O)Nc2ccc(N3CCCC3)cc2)cc1C | -1.44
COc1cc(/C=N/NC(=O)c2cccc([N+](=O)[O-])c2)ccc1OCc1ccc(C)cc1 | -2.21
O=S(=O)(c1cccs1)N1CCC(Cc2ccccc2)CC1 | 6.58
CCC1CCCCN1C(=O)CSc1nc2ccsc2c(=O)n1Cc1ccccc1 (centres unmarked) | -78.3
O=C(COc1ccccc1[N+](=O)[O-])N/N=C/c1ccc[nH]1 | -4.77
CSc1ncccc1C(=O)N1CCCC(C(=O)c2ccc3ccccc3c2)C1 (centres unmarked) | -19.8
Brc1ccc2c(c1)OCCOCCOc1cc(Br)ccc1OCCOCCOCCO2 | -4.86
COc1cccc(CNC(=S)Nc2cc(C)ccc2C)c1 | 18.8
Cc1ccc(CN2CC(C(=O)Nc3ccc(C)cn3)CC2=O)cc1 (centres unmarked) | -3.71

SMILES | hERG current change (%, negative = inhibition) at 10uM [%]
S=C(NCc1ccncc1)Nc1ccc(Br)cc1Cl | -16.5
COc1ccc(Nc2oc(COc3ccccc3F)nc2C#N)cc1 | -10.5
CCc1nn(C(C)C(=O)NCc2cccc(OC)c2)c(=O)c2cc3occc3n12 (centres unmarked) | -15.1
CCc1ccc(/C(C)=N/NC(=O)c2ccc(-n3cnnn3)cc2)cc1 | -23.1
COC(=O)c1c(-c2c(Cl)cccc2Cl)noc1C(=O)NNC(=O)N(C)C | 4.36
Cc1ccc(-c2nc(NCc3ccco3)c3ccccc3n2)cc1 | 4.65
Cc1ccc(-n2c(SCC(=O)NCC3CCCO3)nc3ccccc3c2=O)cc1C (centres unmarked) | -11.5
COc1ccc(Cn2c(=S)[nH]c3ccccc3c2=O)cc1 | 20.2
O=C(NCCN1CCCCC1)Nc1cccc(C(F)(F)F)c1 | -49.4
O=C(C1CC1)N1CCc2cc(Br)cc(S(=O)(=O)NCCCN3CCCC3)c21 | -9.78
COc1ccc(NC(=O)NCCc2ccc(Cl)cc2)cc1OC | 11.3
O=c1cc(CCl)nc2sc3ccccc3n12 | 8.04
CN(C)CCCN(C(=O)c1ccc(S(=O)(=O)N2CCCCCC2)cc1)c1nc2c(F)cc(F)cc2s1.Cl | -69.6
COc1ccc(N(CC(=O)NCC2CCCO2)S(=O)(=O)c2ccccc2)cc1OC (centres unmarked) | 14
Cc1ccc(C(=O)NNC(=O)CCn2nnc3ccccc32)cc1 | 30.2
Cc1cccc([C@@H]2[C@@H]3C(=O)N(Cc4ccccc4)C(=O)[C@@H]3[C@]3(C)C(=O)N(c4ccc(Br)cc4)C(=O)N23)c1 | 1.53
N#C/C(=C\C=C\c1ccccc1)C(=O)NCc1ccco1 | -3.85
COCCCN(Cc1ccco1)C(=O)Cn1ncc2c(=O)oc3ccc(C)cc3c21 | -49.6
CCC(C)Sc1nc2c(c(=O)[nH]c(=O)n2C)n1CCc1ccccc1 (centres unmarked) | -17
Cc1ccccc1N1CC(O)(c2ccccc2)[N+]2=C1SCC2.[Br-] (centres unmarked) | -19.5
C=CCN(C1CCCCC1)S(=O)(=O)c1ccc2c(c1)oc(=O)n2C | -25.1
CCc1c(O)nc(SC2CC(=O)N(c3ccccc3)C2=O)[nH]c1=O (centres unmarked) | 12.6

SMILES | hERG current change (%, negative = inhibition) at 10uM [%]
Cc1c(C(=O)N2CCN(Cc3ccc4c(c3)OCO4)CC2)sc2ncnc(N3CCN(c4ccccc4)CC3)c12 | 7.82
CSc1ccccc1NC(=O)CN(c1ccccc1Br)S(C)(=O)=O | -2.21
COc1ccc2[nH]c(=O)c(CN(Cc3cccs3)Cc3nnnn3Cc3ccccc3)cc2c1 | 12.5
O=C(Nc1ccccn1)c1ccc(Br)c(S(=O)(=O)N2CCCCC2)c1 | 10.9
CCCCCCCC(=O)NN=C1CCN(Cc2ccccc2)CC1 | 3.13
CCn1c2ccccc2c2cc(NC(=O)COC(=O)c3cccc(S(=O)(=O)NC)c3)ccc21 | 6.89
N#CCCN(CCC#N)C(=S)NC1CC2C=CC1C2 (centres unmarked) | 23.3
CCOC(=O)c1cc(NC(=O)N(C(C)C)C2CCCCC2)c(C)nc1C | -8.08
CC(C)(C)c1ccc(OCC(=O)NC2CCS(=O)(=O)C2)cc1 (centres unmarked) | -21.8
COc1ccc(N(CC(=O)N2CCCCCC2)S(=O)(=O)c2ccccc2[N+](=O)[O-])c(OC)c1 | -18.2
CSc1ncccc1C(=O)OCC(=O)Nc1ccc2c(c1)CCC2 | 9.67
CCc1cc2c(COC(=O)c3cccc(S(C)(=O)=O)c3)cc(=O)oc2cc1O | 6.7
CN(CC(=O)NCc1ccncc1)S(=O)(=O)c1cc(Cl)ccc1Cl | -24.2
COc1ccc(C2C(C#N)=C(N)N(c3ccccc3)C3=C2C(=O)CCC3)cc1Cn1cc([N+](=O)[O-])cn1 (centres unmarked) | -30.2
Cc1ccc(C(=O)NCc2ccc3c(c2)CCO3)cc1C | -10.8
Cc1ccc(NC(=O)c2ccc(CSc3ccccn3)cc2)cc1 | 19.3
FC(F)(F)c1cccc(NCc2cn3cccnc3n2)c1 | -11.4
COc1ccccc1NC(=O)COc1ccc(Br)cc1CNCCCN1CCOCC1.Cl | -58.6
CCOC(=O)C1CCN(C(=O)Nc2ccc(OC(F)(F)F)cc2)CC1 | -38.2
COc1ccc(N(CC(=O)NN=C2CCN(C)CC2)S(=O)(=O)c2ccccc2)c(OC)c1 | 10.9
CC(CCc1ccccc1)N(C)CC(O)c1cccc([N+](=O)[O-])c1.Cl (centres unmarked) | -68.6
Cc1ccc2sc(N(CCCN(C)C)C(=O)CN3C(=O)c4ccccc4C3=O)nc2c1C.Cl | -45.2

SMILES | hERG current change (%, negative = inhibition) at 10uM [%]
Nc1nc(O)c(CC(=O)O)s1 | 22.9
COc1ccccc1NC(=O)c1ccc(NC(=O)COC(=O)C2CCCCC2)cc1 | 29.3
O=C(Nc1ccc2c(c1)nc1n2CCSC1)c1ccco1 | 4.09
CCOc1ccc(NC(=O)C2CCN(S(=O)(=O)c3ccc4c(c3)N(C(C)=O)CCO4)CC2)cc1 | -4.09
O=C(Cc1ccc(Cl)cc1)Nc1cccnc1 | -2.21
CCn1cc(C(=O)NCCC(=O)NCCO)c(=O)c2cc3c(cc21)OCO3 | 20.9
COc1ccccc1NC(=O)CSc1nc2ccccc2cc1Cc1ccccc1 | 13.7
Cc1ccc2cc(COC(=O)c3cccc([N+](=O)[O-])c3)c(=O)[nH]c2c1 | 3.7
COC(=O)c1[nH]c2cccc(OC)c2c1NC(=O)CCN1CCN(c2ccccc2OC)CC1 | -26.3
Clc1ccc(SCCCCN2CCOCC2)cc1.O=C(O)C(=O)O | -22.5
CN(C)S(=O)(=O)c1ccc(N2CCOCC2)c(C(=O)NCc2ccc3c(c2)OCO3)c1 | -14.7
CCOc1ccc(N(CC(=O)NC2CCCC2)C(=O)CCC(=O)Nc2nc(C)cs2)cc1 | -28.8
CCOC(=O)N1CCN(C(=O)CSc2nnc(C3COc4ccccc4O3)o2)CC1 (centres unmarked) | -11.5
CN(Cc1cccc(-n2cccn2)c1)C(=O)CCc1nnc(C2CCCCC2)o1 | -6.68
CCCCc1cc(=O)oc2c(CN(CC)CC)c(O)c(Cl)cc12 | -41.8
O=C(Oc1ccc(C(=S)N2CCOCC2)cc1)c1ccc(Br)cc1 | 27.7
CC(C)(C)OC(=O)NNC(=S)NCc1ccc(Cl)cc1 | 3.52
CC(C)c1ccc(N2CC(C(=O)Nc3nccs3)CC2=O)cc1 (centres unmarked) | 1.98
CCCC[n+]1cc(/N=C(\[O-])OC)on1 | 9.45
COc1ccc(C(C(=O)NCC2CCCO2)N(C(=O)Cn2nnc3ccccc32)c2ccc(NC(C)=O)cc2)c(OC)c1 (centres unmarked) | 9.04
